Laboratory results published in the supplement of paper PMC3334620.
Over roughly 33,000 sequences, “E-score (-0.5 to 0.5)” has its median near -0.041; the highest 2% begin near 0.37. The list shows a part of the results.

molecular target: T1, Ecm22 (UniProt Q05958); test: PBM E-score (8-mer binding enrichment) (E-score (-0.5 to 0.5)); higher = stronger / more preferred TF binding; most listed sequences are background and not binding sites; conditions: protein concentration: 200 nM; construct: GST-full length
T1 sequence: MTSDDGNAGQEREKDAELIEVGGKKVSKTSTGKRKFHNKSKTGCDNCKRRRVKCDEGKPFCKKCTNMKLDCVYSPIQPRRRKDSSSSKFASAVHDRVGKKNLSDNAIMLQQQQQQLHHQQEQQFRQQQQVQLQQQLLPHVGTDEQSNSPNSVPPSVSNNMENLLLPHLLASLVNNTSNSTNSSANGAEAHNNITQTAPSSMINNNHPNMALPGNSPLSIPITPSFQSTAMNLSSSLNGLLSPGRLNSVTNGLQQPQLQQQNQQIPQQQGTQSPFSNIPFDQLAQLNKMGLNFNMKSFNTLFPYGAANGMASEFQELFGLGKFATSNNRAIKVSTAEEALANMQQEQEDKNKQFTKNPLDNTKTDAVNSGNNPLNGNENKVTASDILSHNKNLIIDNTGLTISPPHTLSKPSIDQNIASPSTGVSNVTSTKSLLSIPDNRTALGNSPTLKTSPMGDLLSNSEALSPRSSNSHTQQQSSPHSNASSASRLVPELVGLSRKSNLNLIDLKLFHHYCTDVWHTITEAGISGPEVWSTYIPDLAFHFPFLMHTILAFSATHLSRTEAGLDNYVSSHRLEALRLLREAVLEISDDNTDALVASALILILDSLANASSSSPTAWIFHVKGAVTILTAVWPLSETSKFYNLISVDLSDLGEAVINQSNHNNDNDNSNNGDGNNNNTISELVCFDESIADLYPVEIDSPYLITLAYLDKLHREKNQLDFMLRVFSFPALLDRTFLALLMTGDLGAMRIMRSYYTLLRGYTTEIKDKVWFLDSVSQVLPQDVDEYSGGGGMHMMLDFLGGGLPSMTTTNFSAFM
In short: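 Yeast transcription factors, full-length or as DNA-binding domains, were expressed with a GST tag using PURExpress in vitro transcription/translation. At about 100-200 nM they were applied to universal all-10-mer Agilent arrays, double-stranded by primer extension on fresh or once-stripped slides. Fluorescent anti-GST detected bound protein, and masliner normalised the scans. E-scores for ungapped eight-base words, pooled with reverse complements, came from the Universal PBM Analysis Suite.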

Sequence	PBM E-score
CGCAAGGC	-0.00088
ATCCTACA	-0.0936
ATCATGCG	0.0546
CGCGGGTC	0.0392
ATTCAAAG	-0.0723
ACGGGGAG	0.145
CGTAACAG	0.26
CCTTAGTA	-0.147
CAACGACA	0.346
AACTCCGC	-0.137
CAGACCTA	-0.112
AAATTCAC	-0.0299
AGTTCGAG	0.0719
TGGTTGAA	-0.234
GGCTAAAC	0.18
GATAAATA	0.103
CACCGAAG	0.0771
ATGATCCC	-0.149
AACGTCAC	-0.0666
GGATTATA	0.0814
GGGCGCAA	-0.104
AACTGTAC	0.265
GTGAATCA	-0.258
AGACGTCT	-0.216
AAATGTGT	-0.0398

Sequence	PBM E-score
CTGATGTA	-0.0454
TCAATGCA	-0.111
AGCGAATA	0.222
ACCTTGAG	-0.235
GAACAGTA	0.141
GGGTAAAC	0.225
CAGAATGG	-0.0638
ACCAGGGT	-0.114
GTTATACA	0.0733
CCGGCCCC	-0.0251
ATTGTACC	0.00485
CTCACGGC	-0.308
CACAGCTG	-0.163
GGTACCGA	0.103
TACGCCGA	0.268
AAATAGGG	-0.133
GGCACTTA	-0.218
CAGTTAGG	-0.201
AGTCTTAG	-0.235
CTCGGTGC	0.11
GAAAAACC	0.00531
AAATTTAC	0.169
CGCACTGC	-0.0361
ACGCAGGG	-0.0322
CGTTTAAG	0.429

Sequence	PBM E-score
AAGCGGGG	-0.137
AGCTCAGC	-0.206
AACCATCG	0.24
TCTCACCA	-0.231
GCGGATCA	-0.096
CATATGCC	0.0035
ATTTGCCA	-0.242
AGATAACT	-0.0702
CCACAGCA	-0.00618
CATCTTGC	-0.0162
ACCGCAAT	0.247
AACACGCG	0.154
CAAAAATC	-0.163
ATGCTAAA	-0.193
AGCGTAAA	0.129
GGTGCGTA	0.0857
AAAATTTG	-0.0142
AGCGCTCC	-0.0811
GGAGCACA	-0.107
ATGGTGTA	-0.112
CTGAGAGA	-0.162
ATCAGTGC	-0.0824
GTAACCGA	0.332
ATGAAGTG	-0.0259
ACGGGTAG	-0.0219

Sequence	PBM E-score
CGACAGGC	-0.0296
ACCTCCAG	-0.114
AAGCTATC	0.0431
AAAAGCGT	-0.0336
CAGGAACG	0.463
ATGTACGA	0.477
GTAATTCA	0.00085
GCCATGAC	-0.05
CTAGTGTC	-0.0311
GTTCTCGA	0.207
AGGACGTG	-0.194
AATTAATT	-0.163
AATCCCCG	-0.0566
ATCCGGGC	0.0039
TAAGTCGA	0.0399
GTTCGATA	0.081
AGGCCCCC	-0.287
ACGTGAGA	-0.0411
GCTTTTTA	0.0693
ACTTATGA	-0.0382
CTGGATAA	-0.118
AGAGAGTG	-0.122
ACCTTGGA	-0.348
AAAGGTCC	-0.182
GAGTTGGC	0.00765

Sequence	PBM E-score
AGTAAGGC	-0.0596
CCGGAAGA	-0.0579
AACCGACG	0.352
AAACCATC	0.00312
CCCCAATA	-0.286
AGTTCTAA	-0.0483
ACCACGCA	-0.16
CATACGCC	0.182
AGTGACTC	-0.146
GCAGCAGC	-0.0529
ACGACGCG	0.407
ACGTACAG	0.186
CACTGTGG	-0.25
AGGAGATG	-0.131
TAGACTAA	-0.258
GCACATCA	-0.0965
CGTTGATA	0.0252
GGGCCAAA	0.00115
ATTCAATC	-0.0165
GTTCCAGA	0.143
CGATGGGA	0.0516
ACGTTACC	0.0268
TGGGTTAA	-0.142
CCAGGGAA	-0.146
GTGTCACA	-0.0999

Sequence	PBM E-score
ACACCTGG	-0.214
GAAGGTCC	0.0597
GGTCAATA	0.0278
ATGGTTCG	0.132
AGGTTAGG	-0.18
AACAAAAA	0.136
ACCCAGGT	-0.241
TAGCACCA	-0.229
CGCAACTC	-0.016
GCGAGTCA	0.134
CTTGCGAA	0.214
ACTGCGTC	-0.128
ACTCGTTC	0.466
ATCGTCGG	0.175
GAACGCAA	0.0693
ACGGAAAT	0.25
CTAATAAC	0.183
AGTATAGG	-0.213
CATGCAAC	0.0872
AAAAGACC	-0.19
CCAGCGAC	-0.231
CTTGCATC	-0.0202
ATGCCGCC	-0.0499
AGCGACTA	0.161
CTCGCGCC	0.0485

Sequence	PBM E-score
CAAGGCTA	-0.0293
ACATCCTA	-0.147
ACTCTTTA	-0.165
AATGCGTA	0.118
GTGCGTGA	0.0975
AGTGACGA	0.0498
AGAGACAT	-0.195
CACGTCCG	-0.21
AGAGTTTA	0.0891
GGGGTTAA	-0.266
CGGACGGA	-0.0276
AACCGGAT	-0.0117
ATGTTCCG	-0.016
GATCATCC	0.134
CCCGCACC	0.0314
ACAATTAG	-0.0347
CTCAAATA	-0.0528
GGTAAGAC	0.0434
CTGATTTA	-0.036
AGCTGGAT	0.088
CTTATACA	-0.123
ACAAGGCC	-0.181
